Results taken from the supplement of paper PMC7125110.
± gives the standard error. This sample is rich in variants without activity.

B1: glmS ribozyme (parent)
chain: AUAAAAGCGCCAGAACUACAGAAAUGUAGUUGACGAGGAGGAGGUUUAUCGAAUUUUCGGCGGAUGCCUCCAAA

Tests used:
Details in all cases: with glucosamine-6-phosphate
[1] = variants of: B1; test: self-cleavage kobs at 40 uM GlcN6P; higher = faster cleavage; RNA array
Procedure, shortened: (§1)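 Barcoded ribozyme variants, transcribed in situ by E. coli RNA polymerase on sequenced MiSeq chips, were followed via a hybridised Cy3 probe at 37 °C. Glucosamine-6-phosphate ranged from 40 μM to 10 mM in HEPES/KCl/Mg(OAc)2 buffer. kobs came from decay fits to per-tile medians, and kcat and KM from weighted Michaelis–Menten fits.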

[2] = variants of: B1; test: self-cleavage kobs at 10000 uM GlcN6P; higher = faster cleavage; RNA array
Procedure, shortened: as §1

[3] = variants of: B1; test: self-cleavage kobs at 640 uM GlcN6P; higher = faster cleavage; RNA array
Procedure, shortened: as §1

[4] = variants of: B1; test: self-cleavage kobs at 2500 uM GlcN6P; higher = faster cleavage; RNA array
Procedure, shortened: as §1

[5] = variants of: B1; test: self-cleavage kobs at 160 uM GlcN6P; higher = faster cleavage; RNA array
Procedure, shortened: as §1

| Variant | self-cleavage kobs at 40 uM GlcN6P [1] | self-cleavage kobs at 10000 uM GlcN6P [2] | self-cleavage kobs at 640 uM GlcN6P [3] | self-cleavage kobs at 2500 uM GlcN6P [4] | self-cleavage kobs at 160 uM GlcN6P [5] |
| --- | --- | --- | --- | --- | --- |
| U30C G51U C67A | < 1e-05 s⁻¹ | < 1e-05 s⁻¹ |  |  |  |
| U30C G60C | < 1e-05 s⁻¹ | < 1e-05 s⁻¹ |  |  |  |
| U30C G63A | < 1e-05 s⁻¹ |  | < 1e-05 s⁻¹ | < 1e-05 s⁻¹ |  |
| U30C U31C A48C C61A | < 1e-05 s⁻¹ |  |  | < 1e-05 s⁻¹ |  |
| U30C U45A A52U | < 1e-05 s⁻¹ |  |  |  |  |
| U30C U49C G62C | < 1e-05 s⁻¹ |  | < 1e-05 s⁻¹ | < 1e-05 s⁻¹ |  |
| U30C U49G | < 1e-05 s⁻¹ | < 1e-05 s⁻¹ | < 1e-05 s⁻¹ |  | < 1e-05 s⁻¹ |
| U30C U54G C67G | < 1e-05 s⁻¹ |  |  |  |  |
| U30C U57C | < 1e-05 s⁻¹ |  | < 1e-05 s⁻¹ |  |  |
| U30G A39U | 0.000127 ± 2.3e-05 s⁻¹ | 0.00645 ± 0.00095 s⁻¹ | 0.000857 ± 0.00016 s⁻¹ | 0.00224 ± 0.00096 s⁻¹ | 0.000455 ± 8.4e-05 s⁻¹ |
| U30G A42C | < 1e-05 s⁻¹ | < 1e-05 s⁻¹ | < 1e-05 s⁻¹ | < 1e-05 s⁻¹ |  |
| U30G A42G C58U | < 1e-05 s⁻¹ |  |  |  |  |
| U30G A42U G43U A48U G59U | < 1e-05 s⁻¹ |  |  |  |  |
| U30G A52C | < 1e-05 s⁻¹ |  |  |  |  |
| U30G A52C G62U | < 1e-05 s⁻¹ | < 1e-05 s⁻¹ |  |  |  |
| U30G A52U | < 1e-05 s⁻¹ | 5.6e-05 ± 1e-05 s⁻¹ |  | 4.14e-05 ± 1.5e-05 s⁻¹ | < 1e-05 s⁻¹ |
| U30G A53G | 0.000307 ± 5.3e-05 s⁻¹ | 0.0151 ± 0.0037 s⁻¹ | 0.00172 ± 0.0004 s⁻¹ | 0.00534 ± 0.00076 s⁻¹ | 0.00064 ± 0.00013 s⁻¹ |
| U30G C70U | 0.000299 ± 3.2e-05 s⁻¹ |  | 0.00108 ± 0.00014 s⁻¹ |  | 0.000471 ± 8.6e-05 s⁻¹ |
| U30G G35U | < 1e-05 s⁻¹ | < 1e-05 s⁻¹ | < 1e-05 s⁻¹ | < 1e-05 s⁻¹ | < 1e-05 s⁻¹ |
| U30G G41U C68A | < 1e-05 s⁻¹ |  |  |  |  |
| U30G G43C G63A U65A | < 1e-05 s⁻¹ | < 1e-05 s⁻¹ |  |  |  |
| U30G G63U | < 1e-05 s⁻¹ | < 1e-05 s⁻¹ | < 1e-05 s⁻¹ | < 1e-05 s⁻¹ | < 1e-05 s⁻¹ |
| U30G U54C | 0.000148 ± 2.5e-05 s⁻¹ | 0.00714 ± 0.001 s⁻¹ | 0.00235 ± 0.00041 s⁻¹ | 0.00471 ± 0.0008 s⁻¹ | 0.000617 ± 0.00011 s⁻¹ |

| Variant | self-cleavage kobs at 40 uM GlcN6P [1] | self-cleavage kobs at 10000 uM GlcN6P [2] | self-cleavage kobs at 640 uM GlcN6P [3] | self-cleavage kobs at 2500 uM GlcN6P [4] | self-cleavage kobs at 160 uM GlcN6P [5] |
| --- | --- | --- | --- | --- | --- |
| U30G U57G | < 1e-05 s⁻¹ |  |  |  |  |
| U31A A33G A39U G43A A48U | < 1e-05 s⁻¹ | < 1e-05 s⁻¹ |  |  |  |
| U31A A33G G38A C67U | < 1e-05 s⁻¹ |  |  |  |  |
| U31A A36C U49A U65A | < 1e-05 s⁻¹ | < 1e-05 s⁻¹ |  |  |  |
| U31A A36G A52C | < 1e-05 s⁻¹ |  |  |  |  |
| U31A A36G G41A C67G | < 1e-05 s⁻¹ |  |  | < 1e-05 s⁻¹ |  |
| U31A A39C | 5.43e-05 ± 7.8e-06 s⁻¹ | 0.00166 ± 0.0003 s⁻¹ | 0.000525 ± 4.9e-05 s⁻¹ | 0.000973 ± 0.00011 s⁻¹ | 0.000105 ± 1.4e-05 s⁻¹ |
| U31A A53C | 4.92e-05 ± 9.4e-06 s⁻¹ |  |  |  |  |
| U31A C34G | < 1e-05 s⁻¹ | < 1e-05 s⁻¹ |  |  | < 1e-05 s⁻¹ |
| U31A C34U G59U | < 1e-05 s⁻¹ | < 1e-05 s⁻¹ |  |  |  |
| U31A C50U G51U A53G U54G | < 1e-05 s⁻¹ |  | < 1e-05 s⁻¹ |  | < 1e-05 s⁻¹ |
| U31A C58G | < 1e-05 s⁻¹ |  |  |  |  |
| U31A C58U | < 1e-05 s⁻¹ |  |  |  | < 1e-05 s⁻¹ |
| U31A G37C U69G | < 1e-05 s⁻¹ |  |  |  |  |
| U31A G38A | < 1e-05 s⁻¹ | < 1e-05 s⁻¹ |  |  | < 1e-05 s⁻¹ |
| U31A G43C | < 1e-05 s⁻¹ | < 1e-05 s⁻¹ | < 1e-05 s⁻¹ | < 1e-05 s⁻¹ | < 1e-05 s⁻¹ |
| U31A G60U | < 1e-05 s⁻¹ |  | < 1e-05 s⁻¹ | < 1e-05 s⁻¹ | < 1e-05 s⁻¹ |
| U31A G62A | < 1e-05 s⁻¹ | < 1e-05 s⁻¹ |  |  | < 1e-05 s⁻¹ |
| U31A G63C | < 1e-05 s⁻¹ |  |  | < 1e-05 s⁻¹ | < 1e-05 s⁻¹ |
| U31A U49A | < 1e-05 s⁻¹ |  | < 1e-05 s⁻¹ | < 1e-05 s⁻¹ | < 1e-05 s⁻¹ |
| U31A U56A | 0.000218 ± 3.2e-05 s⁻¹ | 0.00967 ± 0.0011 s⁻¹ | 0.00221 ± 0.00061 s⁻¹ | 0.00123 ± 0.0005 s⁻¹ |  |
| U31A U56G | 0.000249 ± 5.8e-05 s⁻¹ | 0.0132 ± 0.0039 s⁻¹ | 0.00335 ± 0.00098 s⁻¹ | 0.00579 ± 0.0015 s⁻¹ | 0.000532 ± 0.00021 s⁻¹ |
